# According to the supplement of paper PMC8728848:
# The list shows a part of the results.
# B1: Banana lectin (Musa acuminata) (protein)
# chain: MNGAIKVGAWGGNGGSAFDMGPAYRIISVKIFSGDVVDAVDVTFTYYGKTETRHFGGSGGTPHEIVLQEGEYLVGMKGEFGNYHGVVVVGKLGFSTNKKSYGPFGNTGGTPFSLPIAAGKISGFFGRGGDFIDAIGVYLEP
# Legend:
# Assay in all cases: glycan array binding signal (z-score within array); higher = stronger binding
# Conditions in all cases: glycan notation: IUPAC condensed, linker removed
# [1] = biological target: Gal(b1-4)GlcNAc(b1-3)Gal(b1-4)GlcNAc(b1-3)Gal(b1-4)GlcNAc(b1-3)Gal(b1-4)GlcNAc(b1-2)Man(a1-3)[Gal(b1-4)GlcNAc(b1-3)Gal(b1-4)GlcNAc(b1-3)Gal(b1-4)GlcNAc(b1-3)Gal(b1-4)GlcNAc(b1-2)Man(a1-6)]Man(b1-4)GlcNAc(b1-4)GlcNAc
# Outline: (§1)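 Glycan array data were curated from 3228 arrays in the Consortium for Functional Glycomics database and kept only where the protein sequence was available. Glycan names were converted to IUPAC-condensed notation, and columns mapping to the same glycan were averaged. The binding signal is a within-array Z-score, averaged across arrays of the same protein sequence at different concentrations or buffers and across linkers. Negative Z-scores can be read as non-binding.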
# [2] = biological target: Gal(b1-4)GlcNAc(b1-3)Gal(b1-4)GlcNAc(b1-3)Gal(b1-4)GlcNAc(b1-3)Gal(b1-4)GlcNAc(b1-2)Man(a1-3)[Gal(b1-4)GlcNAc(b1-3)Gal(b1-4)GlcNAc(b1-3)Gal(b1-4)GlcNAc(b1-3)Gal(b1-4)GlcNAc(b1-2)Man(a1-6)]Man(b1-4)GlcNAc(b1-4)[Fuc(a1-6)]GlcNAc
# Outline: as §1
# [3] = biological target: Gal(b1-4)GlcNAc(b1-3)Gal(b1-4)GlcNAc(b1-3)Gal(b1-4)GlcNAc(b1-3)Gal(b1-4)GlcNAc(b1-2)[Gal(b1-4)GlcNAc(b1-3)Gal(b1-4)GlcNAc(b1-3)Gal(b1-4)GlcNAc(b1-3)Gal(b1-4)GlcNAc(b1-6)]Man(a1-6)[Gal(b1-4)GlcNAc(b1-3)Gal(b1-4)GlcNAc(b1-3)Gal(b1-4)GlcNAc(b1-3)Gal(b1-4)GlcNAc(b1-2)Man(a1-3)]Man(b1-4)GlcNAc(b1-4)[Fuc(a1-6)]GlcNAc
# Outline: as §1
# [4] = biological target: Gal(b1-4)GlcNAc(b1-3)Gal(b1-4)GlcNAc(b1-3)Gal(b1-4)GlcNAc(b1-3)Gal(b1-4)GlcNAc(b1-3)Gal(b1-4)GlcNAc(b1-2)Man(a1-3)[Gal(b1-4)GlcNAc(b1-3)Gal(b1-4)GlcNAc(b1-3)Gal(b1-4)GlcNAc(b1-3)Gal(b1-4)GlcNAc(b1-3)Gal(b1-4)GlcNAc(b1-2)Man(a1-6)]Man(b1-4)GlcNAc(b1-4)GlcNAc
# Outline: as §1
# [5] = biological target: Gal(b1-4)GlcNAc(b1-3)Gal(b1-4)GlcNAc(b1-3)Gal(b1-4)GlcNAc(b1-3)Gal(b1-4)GlcNAc(b1-3)Gal(b1-4)GlcNAc(b1-2)Man(a1-3)[Gal(b1-4)GlcNAc(b1-3)Gal(b1-4)GlcNAc(b1-3)Gal(b1-4)GlcNAc(b1-3)Gal(b1-4)GlcNAc(b1-3)Gal(b1-4)GlcNAc(b1-2)Man(a1-6)]Man(b1-4)GlcNAc(b1-4)[Fuc(a1-6)]GlcNAc
# Outline: as §1
# [6] = biological target: Gal(b1-4)GlcNAc(b1-3)Gal(b1-4)GlcNAc(b1-3)Gal(b1-4)GlcNAc(b1-3)Gal(b1-4)GlcNAc(b1-3)Gal(b1-4)GlcNAc(b1-2)[Gal(b1-4)GlcNAc(b1-3)Gal(b1-4)GlcNAc(b1-3)Gal(b1-4)GlcNAc(b1-3)Gal(b1-4)GlcNAc(b1-3)Gal(b1-4)GlcNAc(b1-6)]Man(a1-6)[Gal(b1-4)GlcNAc(b1-3)Gal(b1-4)GlcNAc(b1-3)Gal(b1-4)GlcNAc(b1-3)Gal(b1-4)GlcNAc(b1-3)Gal(b1-4)GlcNAc(b1-2)Man(a1-3)]Man(b1-4)GlcNAc(b1-4)[Fuc(a1-6)]GlcNAc
# Outline: as §1
# [7] = biological target: Gal(b1-4)GlcNAc(b1-3)Gal(b1-4)GlcNAc(b1-3)Gal(b1-4)GlcNAc(b1-3)Gal(b1-4)GlcNAc(b1-3)Gal(b1-4)GlcNAc(b1-3)Gal(b1-4)GlcNAc(b1-2)Man(a1-3)[Gal(b1-4)GlcNAc(b1-3)Gal(b1-4)GlcNAc(b1-3)Gal(b1-4)GlcNAc(b1-3)Gal(b1-4)GlcNAc(b1-3)Gal(b1-4)GlcNAc(b1-3)Gal(b1-4)GlcNAc(b1-2)Man(a1-6)]Man(b1-4)GlcNAc(b1-4)GlcNAc
# Outline: as §1
# [8] = biological target: Gal(b1-4)GlcNAc(b1-3)Gal(b1-4)GlcNAc(b1-3)GalNAc
# Outline: as §1
# [9] = biological target: Gal(b1-4)GlcNAc(b1-3)Gal(b1-4)GlcNAc(b1-3)[Gal(b1-4)GlcNAc(b1-3)Gal(b1-4)GlcNAc(b1-6)]GalNAc
# Outline: as §1
# [10] = biological target: Gal(b1-4)GlcNAc(b1-3)Gal(b1-4)GlcNAc(b1-6)[Gal(b1-3)]GalNAc
# Outline: as §1
# [11] = biological target: Gal(b1-4)GlcNAc(b1-3)Gal(b1-4)[Fuc(a1-3)]GlcNAc(b1-3)Gal(b1-4)[Fuc(a1-3)]GlcNAc
# Outline: as §1
# [12] = biological target: Gal(b1-4)GlcNAc(b1-3)GalNAc
# Outline: as §1
# [13] = biological target: Gal(b1-4)GlcNAc(b1-3)[Fuc(a1-3)GlcNAc(b1-6)]Gal(b1-4)Glc
# Outline: as §1
# [14] = biological target: Gal(b1-4)GlcNAc(b1-3)[Gal(b1-4)GlcNAc(b1-6)]Gal(b1-4)GlcNAc
# Outline: as §1
# [15] = biological target: Gal(b1-4)GlcNAc(b1-3)[GlcNAc(b1-6)]Gal(b1-4)GlcNAc
# Outline: as §1
# [16] = biological target: Gal(b1-4)GlcNAc(b1-6)Gal(b1-4)GlcNAc
# Outline: as §1
# [17] = biological target: Gal(b1-4)GlcNAc(b1-6)GalNAc
# Outline: as §1
# [18] = biological target: Gal(b1-4)GlcNAc(b1-6)[Gal(b1-3)]GalNAc
# Outline: as §1
# [19] = biological target: Gal(b1-4)GlcNAc(b1-6)[Gal(b1-4)GlcNAc(b1-3)]GalNAc
# Outline: as §1
# [20] = biological target: Gal(b1-4)GlcNAc6P
# Outline: as §1
# [21] = biological target: Gal(b1-6)Gal
# Outline: as §1
# [22] = biological target: Gal3S(b1-3)GalNAc
# Outline: as §1
# [23] = biological target: Gal3S(b1-3)GlcNAc
# Outline: as §1
binder,measurement,setting,value
B1,glycan array binding signal (z-score),[1],-0.179
same,glycan array binding signal (z-score),[2],-0.174
same,glycan array binding signal (z-score),[3],-0.176
same,glycan array binding signal (z-score),[4],-0.162
same,glycan array binding signal (z-score),[5],-0.113
same,glycan array binding signal (z-score),[6],-0.12
same,glycan array binding signal (z-score),[7],-0.131
same,glycan array binding signal (z-score),[8],-0.188
same,glycan array binding signal (z-score),[9],-0.186
same,glycan array binding signal (z-score),[10],-0.191
same,glycan array binding signal (z-score),[11],-0.175
same,glycan array binding signal (z-score),[12],-0.192
same,glycan array binding signal (z-score),[13],-0.193
same,glycan array binding signal (z-score),[14],-0.194
same,glycan array binding signal (z-score),[15],-0.187
same,glycan array binding signal (z-score),[16],-0.195
same,glycan array binding signal (z-score),[17],-0.192
same,glycan array binding signal (z-score),[18],-0.193
same,glycan array binding signal (z-score),[19],-0.191
same,glycan array binding signal (z-score),[20],-0.196
same,glycan array binding signal (z-score),[21],-0.194
same,glycan array binding signal (z-score),[22],-0.191
same,glycan array binding signal (z-score),[23],-0.191
